Laboratory results reported in PubChem BioAssay AID1345083 (National Center for Advancing Translational Sciences (NCATS), 2018).
Hit rate of the full screen: of about 94,000 compounds, about 6,200 (6.6%) were called active. Inconclusive results, whose numbers are uncertain, are shown with a selection of clear calls. Calls come from the whole dose curve; as a rule, active = well fitted inhibition curve with a large enough effect; inconclusive = small, poorly fitted or top-dose-only effect; inactive = flat fitted curve, though single readings scatter. A potency beside an inconclusive call is a rough fit, not a confirmed value.
Potency is the fitted concentration of half-maximal effect; tags give direction and shape of the fitted curve.

Assay: Cytotoxic Profiling in HEK 293 Cell Line of Diverse Libraries Using Quantitative High-Throughput Screening; note: nearly all actives have a fitted effect of over 60% in size
Details: HEK 293 viability, ATP luminescence (CellTiter-Glo), 48-72 h; series mostly up to 115 µM
In short: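 Viability of HEK 293 cells, plated at 250 cells/well, was judged by cellular ATP after compound treatment for 48 or 72 hr. Luminescence was imaged 10 min after CellTiter-Glo addition at room temperature.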
With `COCCNC(=O)c1cc(-c2ccc(OC)cc2)nc2c1cnn2C` the Potency was inconclusive: 56.2 µM [inhibitor, partial curve, poor fit].
For `CC(=O)Nc1ccc(-c2ccc(=O)n3c2[C@@H]2C[C@@H](CN(C(=O)c4ccc(F)cc4)C2)C3)cc1`, the Potency was “inactive”.
With `CCOC(=O)C1=CN(CC(=O)Nc2ccc(C)cc2)S(=O)(=O)N=C1C` the Potency was inconclusive: 89.1 µM [inhibitor, single point].
For `O=C(c1ccc(OC(F)(F)F)cc1)N1CC2CC(C1)[C@H]1CCCC(=O)N1C2` (stereo not given in full), the Potency was “inactive”.
For `CC(C)(Oc1nn(CC2CCOCC2)c2ccccc12)C(=O)Nc1ccccn1`, the Potency was inconclusive: 100 µM [inhibitor, partial curve].
For `CC1Oc2ccc(NC(=O)Cc3ccc(F)cc3)cc2CN(Cc2ccccc2F)C1=O` (stereo not given), the Potency was inconclusive: 56.2 µM [inhibitor, partial curve, poor fit].
With `Cc1ncc(-c2nc3cc(S(=O)(=O)NC(C)C)ccc3n2C(C)C)cn1` the Potency was “inactive”.
For `COc1ccc(/C=C/c2ccc3c(c2)C(=O)N2C[C@@H](NC(=O)CC(C)(C)CC(=O)O)C[C@H]2C(=O)N3)cc1`, the Potency was inconclusive: 56.2 µM [inhibitor, partial curve, poor fit].
In the case of `Cc1cccc(C(=O)N2[C@@H]3CC[C@H]2CC(NC(=O)c2cnc(C)cn2)C3)c1` (stereo not given in full), the Potency is reported as “inactive”.
For `O=C(NC1CCCCC1)N1CCCC1c1nncn1C1CCCC1` (stereo not given), the Potency was “inactive”.
With `CNC(=O)c1cc(C2CC2)nc2c1c(C1CCCN(C(=O)c3ccc(C)cc3)C1)nn2C` (stereo not given) the Potency was inconclusive: 89.1 µM [inhibitor, single point].
With `O=C(c1n[nH]c2ccccc12)N1CCC(OCCOc2ccccc2)CC1` the Potency was inconclusive: 56.2 µM [inhibitor, partial curve, poor fit].
For `CCC[C@H]1C[C@H]1C(=O)NCc1cc2c(nc1OC)CN(C1CCCC1)C2=O`, the Potency was inconclusive: 89.1 µM [inhibitor, single point].
For `O=C(NC1CC1)c1nc2cccnc2n(CCc2ccccc2)c1=O`, the Potency was active: 56.2 µM.
In the case of `O=C(NCc1ccc(F)c(F)c1)C1CCc2nnc(-c3cccc(C(F)(F)F)c3)n21` (stereo not given), the Potency is reported as inconclusive: 44.7 µM [inhibitor, partial curve, poor fit].
For `COC1C(=O)N(c2cccc(F)c2)C12CCN(C(=O)c1cn(C)cn1)CC2` (stereo not given), the Potency was “inactive”.
In the case of `CC1(c2ccccc2)N(Cc2cccnc2)C(=O)OC12CCN(C(=O)Cc1ccc(Cl)cc1)CC2` (stereo not given), the Potency is reported as inconclusive: 89.1 µM [inhibitor, partial curve, poor fit].
For `COCCn1ncc(N2CCCC(CC(=O)NCc3cccc(Cl)c3)C2)cc1=O` (stereo not given), the Potency was “inactive”.
With `O[C@H]1[C@H](n2cc(-c3cccc(F)c3)nn2)c2ccccc2C12CCNCC2` the Potency was inconclusive: 56.2 µM [inhibitor, partial curve, poor fit].
With `Cc1cccc(OCCc2noc(C3CCNC3)n2)c1` (stereo not given) the Potency was inconclusive: 8.91 µM [inhibitor, full curve, poor fit].
For `O=[S+]([O-])(NC1CCCN(c2ccc3nnc(C4CC4)n3n2)C1)c1ccccc1` (stereo not given), the Potency was inconclusive: 56.2 µM [inhibitor, partial curve, poor fit].
In the case of `COCCNC(=O)c1nc2sccn2c1-c1ccncc1`, the Potency is reported as “inactive”.
For `CN(C)c1ccc(-c2nnc([C@H]3CCN(Cc4ccco4)C3)o2)cc1`, the Potency was inconclusive: 100 µM [inhibitor, partial curve, poor fit].
With `Cc1ccccc1S(=O)(=O)N1CCCC(Cc2noc(-c3cccnc3)n2)C1` (stereo not given) the Potency was inconclusive: 70.8 µM [inhibitor, partial curve, poor fit].
In the case of `CCNC(=O)c1ccc(CN2C(=O)NC3(CCS(=O)(=O)CC3)C2=O)cc1`, the Potency is reported as “inactive”.
For `O=C(NCC1CCCO1)c1noc(-c2ccccc2F)n1` (stereo not given), the Potency was “inactive”.
In the case of `O=C1CC2(CCN(C(=O)C3CCN(C(=O)c4ccc(C(F)(F)F)cc4)C3)CC2)Oc2ccccc2N1` (stereo not given), the Potency is reported as inconclusive: 44.7 µM [inhibitor, partial curve, poor fit].
In the case of `CC(C)C[C@@H]1N[C@H](C(=O)NCCOc2ccccc2)Cc2cn(C)c3cccc1c23`, the Potency is reported as active: 39.8 µM.
For `COCCCNC(=O)N1CC[C@H]2C(=O)NCCCCCCN(Cc3ccncc3)[C@@H]2C1`, the Potency was “inactive”.
In the case of `Cc1ccc(Nc2ccnc(N3CCC(NC(=O)NC(C)C)CC3)n2)cc1`, the Potency is reported as inconclusive: 56.2 µM [inhibitor, partial curve, poor fit].
For `COc1ccc(NC(=O)c2c(-c3cnn(C)c3NCc3ccccc3)noc2C)cc1`, the Potency was inconclusive: 10 µM [inhibitor, full curve, poor fit].
With `CC(=O)N(C1CC1)C1CCOC2(CCN(C(=O)C3(c4ccccc4)CC3)CC2)C1` (stereo not given) the Potency was inconclusive: 89.1 µM [inhibitor, single point].
With `O=C(Nc1ccc(Cl)cc1)NC1CCN(c2nccc(Nc3ccccc3F)n2)CC1` the Potency was active: 35.5 µM.
In the case of `Cc1nc(C2CC(O)C2)cc(N(C)Cc2cnc3ccccc3c2)n1` (stereo not given), the Potency is reported as “inactive”.
For `COc1ccc(C(=O)N2C[C@@H]3OCC(=O)N(Cc4cccnc4)[C@@H]3C2)cc1`, the Potency was “inactive”.
With `O=[S+]1([O-])NCC2(CCCN(Cc3cccc(C(F)(F)F)c3)C2)Oc2ncccc21` (stereo not given) the Potency was inconclusive: 79.4 µM [inhibitor, single point].
In the case of `COC(=O)[C@@H]1Cc2c([nH]c3ccccc23)[C@H]2C[C@H](NCCCn3ccnc3)C[C@@H](c3ccccc3F)N21`, the Potency is reported as inconclusive: 20 µM [inhibitor, full curve, poor fit].
For `C=CCOC(=O)C1=C(C)N(Cc2cc(F)cc(F)c2)C(=O)CC1c1ccccc1Cl` (stereo not given), the Potency was inconclusive: 89.1 µM [inhibitor, single point].
For `Cc1cc(=O)n(CC(=O)Nc2ccc3c(c2)OCO3)c(-c2ccc(Cl)cc2)n1`, the Potency was inconclusive: 44.7 µM [inhibitor, partial curve, poor fit].
For `O=c1n(CCN2CCCC(N[S+](=O)([O-])c3ccccc3)C2)nc2n1CCCC2` (stereo not given), the Potency was “inactive”.
In the case of `O=C1CC2(CCN(Cc3cccc4ccccc34)CC2)Oc2ccccc2N1`, the Potency is reported as inconclusive: 50.1 µM [inhibitor, partial curve, poor fit].
With `Fc1ccccc1CC1CCN(CC2[C@H]3CNC[C@@H]23)CC1` (stereo not given in full) the Potency was inconclusive: 31.6 µM [inhibitor, partial curve, poor fit].
For `COc1cccc(N2CC(C(=O)N3CCC(C(=O)N(C)C)C3)NC2=O)c1` (stereo not given), the Potency was “inactive”.
For `Cc1nc(-c2cccc(Cl)c2)n(CC(=O)NCCCc2ccccc2)c(=O)c1CCO`, the Potency was inconclusive: 39.8 µM [inhibitor, full curve, poor fit].
In the case of `O=C(c1c(F)cccc1F)N1CCC2(CC1)N=C(c1ccc(Cl)cc1)NO2`, the Potency is reported as inconclusive: 44.7 µM [inhibitor, partial curve, poor fit].
With `O=C(c1cocn1)N1CCNc2cnc(Nc3cccc(C(F)(F)F)c3)nc2C1` the Potency was active: 70.8 µM.
With `COCCN1C(=O)CC[C@]2(C(=O)NCc3ccco3)CCCC[C@@H]12` the Potency was inconclusive: 89.1 µM [inhibitor, single point].
For `COC[C@@H]1CN(C(=O)Cn2cccn2)C[C@H]1c1ccncc1`, the Potency was “inactive”.
For `O=C(c1ccccn1)N1CCCC(CN2CCCC2)CC1` (stereo not given), the Potency was “inactive”.
With `O=C(NCc1ccc(F)cc1)c1cc(C2CC2)nc2onc(C3CCNCC3)c12` the Potency was inconclusive: 79.4 µM [inhibitor, partial curve, poor fit].
In the case of `O=C(NC[C@H]1Cn2cc(-c3ccc4c(c3)OCCCO4)nc2CO1)c1ccc2c(c1)OCO2`, the Potency is reported as inconclusive: 89.1 µM [inhibitor, single point].
For `O[C@@H]1C[C@@H](c2nc(Cc3ccccc3)no2)N(Cc2ccccc2)C1`, the Potency was inconclusive: 126 µM [inhibitor, single point].
In the case of `O=C(C1CC1)N1CC2(CCCN2C2COC2)Cc2ccccc21` (stereo not given), the Potency is reported as “inactive”.
With `CCc1nc2c(c(-c3ccc(Cl)cc3)n1)CN(C(=O)c1ccc(C(F)(F)F)cc1)CC2` the Potency was inconclusive: 50.1 µM [inhibitor, partial curve, poor fit].
In the case of `O=C(NCCCc1ccccc1)C1CCN(Cc2ccccc2-c2cccnc2)CC1`, the Potency is reported as inconclusive: 56.2 µM [inhibitor, partial curve, poor fit].
In the case of `COC(=O)[C@@H]1Cc2ncn(Cc3ccc(Cl)cc3)c2CN1Cc1ccc(CO)o1`, the Potency is reported as inconclusive: 112 µM [inhibitor, partial curve, poor fit].
With `Cc1ccc([S+](=O)([O-])NC2CCN(Cc3cccc(-c4cccs4)c3)CC2)cc1` the Potency was inconclusive: 20 µM [inhibitor, full curve, poor fit].
In the case of `CC(=O)Nc1ccc(C(=O)NC2CCN(c3cc(-c4ccc(Cl)cc4)[nH]n3)CC2)cc1`, the Potency is reported as active: 31.6 µM.
In the case of `COc1cccc(CC(=O)N2CCCn3nc(C)c(-c4ccccc4Oc4ccccc4)c32)c1`, the Potency is reported as active: 44.7 µM.
For `CCc1ccccc1NC(=O)N1CC(C(=O)N(C)C)C2(CCOCC2)C1` (stereo not given), the Potency was “inactive”.
For `Cn1cc(C(=O)N2CCCC(c3nnnn3C)C2)cn1` (stereo not given), the Potency was “inactive”.
For `O=C(CCC[C@@H]1[C@H]2CCCN3CCC[C@@H](CN1C(=O)c1cccnc1)[C@@H]23)NCCCc1ccccc1`, the Potency was “inactive”.
In the case of `O=C(NC1CCCC1)C1CCCN(C2CCN(Cc3ccncc3)CC2)C1` (stereo not given), the Potency is reported as “inactive”.
In the case of `O=C(c1ccc2[nH]ccc2c1)N1CCCN(c2cc(-c3ccc(F)cc3)[nH]n2)CC1`, the Potency is reported as inconclusive: 56.2 µM [inhibitor, partial curve, poor fit].
For `Cc1ccc(-c2cc(C(=O)NCc3cccc(Cl)c3)c3cnn(C)c3n2)cc1`, the Potency was “inactive”.
